Here are results for 42 sequences from PMC7819943, “Rice protein-binding microarrays: a tool to detect cis-acting elements near promoter regions in rice”.

The list shows a part of the results.

In this test the target is T1, OsWOX13 (Oryza sativa, UniProt Q5QMM3 1-267).
T1 sequence: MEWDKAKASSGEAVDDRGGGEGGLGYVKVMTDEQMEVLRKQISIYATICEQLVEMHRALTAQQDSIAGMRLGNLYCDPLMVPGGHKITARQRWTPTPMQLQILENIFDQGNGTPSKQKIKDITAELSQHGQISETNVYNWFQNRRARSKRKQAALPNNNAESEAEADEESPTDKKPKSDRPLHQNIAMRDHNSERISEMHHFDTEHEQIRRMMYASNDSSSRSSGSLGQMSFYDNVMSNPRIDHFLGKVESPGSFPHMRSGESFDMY
Briefly: protein-binding microarray (RPBM); PBS, 2% BSA, 51.3 ng/ul salmon testes DNA, 50 uM zinc acetate, 200 nM TF, 25 C, 1 h; high values mean tight binding. To be noted: protein: recombinant; tags: N-terminal polyhistidine and DsRed monomer fusion (pET32a); label: CyDye5-dUTP incorporated in the synthesized complementary strand; 3' TTTTT single-stranded linker to array surface; dsDNA, one strand shown. The gist of the method:
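Polyhistidine-tagged DsRed fusions of transcription factors, joined at the N-terminus, were expressed in E. coli BL21-CodonPlus and isolated on Ni–NTA. They were incubated at 200 nM for 1 h at 25 °C on a custom Agilent array, double-stranded and BSA-blocked, in PBS with 2% BSA, salmon testes DNA and 50 µM zinc acetate. The binding signal is per-feature fluorescence intensity (arbitrary units) read on an Axon 4000B scanner after washing.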
As for “TGGTGATGGATTAGATTTGTGTCACTTCTAAGGGAGTAAACGGAGTCACCTAGTGCAG”, the binding signal is 24400 fluorescence intensity (a.u.).
As for “CTACCTTTAATTAGCTTTGCCATAAACGACGTGGGAGTATCGGAGTCACCTAGTGCAG”, the binding signal was 10300 fluorescence intensity (a.u.).
Consider “TGCTTGGATTGAGGGATTGATTGATTTCTTCTCTGAACTTCGGAGTCACCTAGTGCAG”, for which the binding signal was 44900 fluorescence intensity (a.u.).
The result for “ATTGATTTGATTAGTTAGTTTGATCTGGGCTTCTGCATTCCGGAGTCACCTAGTGCAG” reads 32800 fluorescence intensity (a.u.); that for “GTGATATTTGGGATAATTGTATCCTCATTTTCAATCCTTTCGGAGTCACCTAGTGCAG”, 5020 fluorescence intensity (a.u.); that for “CTATATCATTTACAAATTAATCAAATTTAAAGGAGTTTTACGGAGTCACCTAGTGCAG”, 7180 fluorescence intensity (a.u.).
The result for “ACTACTCCACTAATTGATTTACTACTTAGTACTAAGTACTCGGAGTCACCTAGTGCAG” reads 35900 fluorescence intensity (a.u.); that for “CTGCTAATCACTCACGTATAGTTCGTACTTCATTTCTTCTCGGAGTCACCTAGTGCAG”, 12000 fluorescence intensity (a.u.).
The result for “TAACTAATTATGTGTTAATTCATCTTTTCATTTACGTGTCCGGAGTCACCTAGTGCAG” reads 26700 fluorescence intensity (a.u.); that for “TGAATAATTTTGTCAAACACATACTAGCCAGACAAATAAGCGGAGTCACCTAGTGCAG”, 5510 fluorescence intensity (a.u.).
As to “ACAGCCTCGGCAGTCAATCAACCCTAGTAAATTTCATCGTCGGAGTCACCTAGTGCAG”, the binding signal was 11800 fluorescence intensity (a.u.).
On to “GTAAATTGTAGATGGCTGCCGACCAGTGGGGTTGGAAATGCGGAGTCACCTAGTGCAG”, for which the binding signal is 3670 fluorescence intensity (a.u.).
With “CTGTCATTAGAGACTAATTGGATTAGTTTAATCACCTAATCGGAGTCACCTAGTGCAG”, the binding signal is 17900 fluorescence intensity (a.u.).
The result for “TTAAACTAAGATTAACATAATTTGGACAATGATTTTAATGCGGAGTCACCTAGTGCAG” reads 19800 fluorescence intensity (a.u.); that for “AGCATATAATTGATTAACTATTAGAAAAGGATTTAGAATGCGGAGTCACCTAGTGCAG”, 51000 fluorescence intensity (a.u.); that for “GAATTGATGAAAACATAAATTAACTCCTCGTACCCTTTTACGGAGTCACCTAGTGCAG”, 6640 fluorescence intensity (a.u.).
The result for “AGTAATAATCCAATGACTGGTTTGAGGCACGCATTAGGCGCGGAGTCACCTAGTGCAG” reads 4790 fluorescence intensity (a.u.); that for “CTCATTGGATGAATTGACAGAGTCTCTTGCCCTTTACCTTCGGAGTCACCTAGTGCAG”, 13500 fluorescence intensity (a.u.).
The result for “TTGTTTTAATTAGAACCACCAAATAGTACTACTTCACACGCGGAGTCACCTAGTGCAG” reads 13200 fluorescence intensity (a.u.); that for “TTCAGCAAATTAGCAAATATTGCATCTTGTGTTTCCTCTGCGGAGTCACCTAGTGCAG”, 7600 fluorescence intensity (a.u.).
On to “CAATTTCATTTCCAATCACACAGATTTGCTCTCTTCTTCTCGGAGTCACCTAGTGCAG”, for which the binding signal is 10300 fluorescence intensity (a.u.).
Regarding “TCCAGTGATTAATCTCTTCTCCATCTCTGCCCTGCACCCTCGGAGTCACCTAGTGCAG”, the binding signal was 21400 fluorescence intensity (a.u.).
The result for “TGTAATTACATGTAAGTTACAGTGTAATTACATATAAGTTCGGAGTCACCTAGTGCAG” reads 22300 fluorescence intensity (a.u.); that for “AATTAATCAGCCAATCACAATCTCTCAAACTACACGGACTCGGAGTCACCTAGTGCAG”, 35500 fluorescence intensity (a.u.).
The figure for “GTGATTGATGTAAATGCCTTAACGGTCCAGCACCTCAGCTCGGAGTCACCTAGTGCAG” is 61200 fluorescence intensity (a.u.); for “GTTCTAAACAGACCTAAATTGCACCCTAGTAAGAAGTAAGCGGAGTCACCTAGTGCAG” it is 7170 fluorescence intensity (a.u.); for “GCAATTTGATTTGGCCTGTATATTATTATGTGCAGGGTTCCGGAGTCACCTAGTGCAG” it is 13800 fluorescence intensity (a.u.).
The result for “TCAAGTTGAATTGGCCCTGATTGACAGACGAGCAGTGACTCGGAGTCACCTAGTGCAG” reads 29600 fluorescence intensity (a.u.).
As to “CGCCGTCCATCTCCATTAATGCCTCCATCCACCTCGCCCACGGAGTCACCTAGTGCAG”, the binding signal is 3320 fluorescence intensity (a.u.).
For the sequence “CCCAATAACAAAACAAATTACAGATTCCGCCAGAAAACTGCGGAGTCACCTAGTGCAG”, the binding signal was 9050 fluorescence intensity (a.u.).
The result for “ATTTTATAATTGAACAGTATTTTATAATTTTGAATGTACACGGAGTCACCTAGTGCAG” reads 17600 fluorescence intensity (a.u.); that for “TATGTTCTTGATTTGTCCTGTTACATTGCTGACATATGTGCGGAGTCACCTAGTGCAG”, 8650 fluorescence intensity (a.u.).
As for “GATAAGTGATTGATTAACTACTAATTTAATTATCACTGTGCGGAGTCACCTAGTGCAG”, the binding signal was 63300 fluorescence intensity (a.u.).
The figure for “AAAATTATATAATTATAATTTATTTTATTGCAACTTGATTCGGAGTCACCTAGTGCAG” is 27000 fluorescence intensity (a.u.); for “GACCGTAATTACCTTAGTGCAAATTCTACATATCTATATACGGAGTCACCTAGTGCAG” it is 14800 fluorescence intensity (a.u.).
The figure for “ACTCTACTGATAGATTTGATTGTAAACATTGTTTTCTTGCCGGAGTCACCTAGTGCAG” is 30600 fluorescence intensity (a.u.).
The figure for “ACAAATTTAATCAATACTAATTTAGTAAAGTGCCCGCGCACGGAGTCACCTAGTGCAG” is 35900 fluorescence intensity (a.u.).
With “TAAATTTAGCCTTTGATTTCTTCTCTACAAAATAAATTTCCGGAGTCACCTAGTGCAG”, the binding signal was 4040 fluorescence intensity (a.u.).
The figure for “ATATGATGTGATGGAAAGTTAGGAATAGGCGGAAACTATACGGAGTCACCTAGTGCAG” is 4140 fluorescence intensity (a.u.); for “TGGGCTAAACGCATCAATCACACACGCAACGTGGACGGGCCGGAGTCACCTAGTGCAG” it is 14600 fluorescence intensity (a.u.).
The figure for “TAGGAGTAATTAACTTTATAATTTATAAGTTGATTTGTATCGGAGTCACCTAGTGCAG” is 40900 fluorescence intensity (a.u.).
The result for “ATATATATATATATATCCATATTCCTTCCCCTCGCACTGTCGGAGTCACCTAGTGCAG” reads 4060 fluorescence intensity (a.u.).
